Measured values from PubChem BioAssay AID686978 (National Center for Advancing Translational Sciences (NCATS), 2013).
Values joined by “and” are separate entries in the source; they are usually repeats but may differ in a detail not shown here. Identical values can stand only once. The campaign covered roughly 420,000 compounds. About 64,000 (15%) were called active. The inconclusive results got no clear call from the source; some entries with a clear call stand among them for comparison. The call rests on the fitted dose curve; in most records, active means well fitted inhibition curve with a large enough effect; inconclusive means small, poorly fitted or top-dose-only effect; inactive means flat fitted curve, though single readings scatter. Potencies beside an inconclusive call are fits to weak or partial responses and may not hold up.

test: qHTS for Inhibitors of human tyrosyl-DNA phosphodiesterase 1 (TDP1): qHTS in cells in absence of CPT; conditions: DT40 Tdp1-/- hTDP1 cells, no CPT, ATP luminescence, 48 h; activity change, negative = growth inhibition: at 46.2 µM (top of the series); further: nearly all actives have a fitted effect of over 55% in size
Procedure, shortened: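 Cells were dispensed at 400 per well, compounds added by pin tool, plates incubated ≥48 hr at 37 °C, then CellTiter-Glo added for 30 min at room temperature before luminescence reading. Line: DT40 Tdp1-/- complemented with hTDP1; camptothecin omitted.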
On the % scale 0 is the no-effect control and ±100 the full control effect; potency means the concentration at half of the fitted maximal effect; tags describe the fitted curve by direction and shape.

SMILES | Potency | activity change, negative = growth inhibition
Cc1cccc(C(=O)OCN2C(=O)c3ccccc3C2=O)c1[N+](=O)[O-] | inactive | 
O=S(=O)(c1cccc(Cl)c1)N1CCSc2ccccc21 | inactive | 
COC(=O)[C@]1(Cc2ccccc2)N[C@H](CN(C)C(=O)COc2ccccc2)[C@@H]2C(=O)N(C)C(=O)[C@@H]21 | inactive | 
CN(C)c1ccc(-c2nc3cnccn3c2Nc2cccc(C(F)(F)F)c2)cc1 | inconclusive: 29.1 µM [inhibitor, single point] | 
COc1ccc(NC(=O)Cn2c(=O)n(Cc3ccco3)c(=O)c3cc(OC)c(OC)cc32)cc1 | inconclusive: 29.1 µM [inhibitor, single point] | 
O=S(=O)(c1ccc2ncn(O)c2c1)N1CCOCC1 | inconclusive: 29.1 µM [inhibitor, partial curve] | 
COc1ccccc1-c1c(C)nn2c(NCCN3CCCC3)cc(C)nc12 | inactive | 
CCOC(=O)c1cc2sccc2n1CC(=O)N1CCCc2ccccc21 | inconclusive: 16.4 µM [inhibitor, single point] | 
O=C1CC(SCCO)C(=O)N1c1ccccc1 (stereo not drawn) | inactive | 
CCc1ccc(Nc2ncc3c(n2)CC(c2ccco2)CC3=O)cc1 (stereo not drawn) | inconclusive: 29.1 µM [inhibitor, single point] | 
Cc1cc(C)c(C(=O)N2CCCC(Nc3ccc(C)c(C)c3)C2)o1 (stereo not drawn) | inconclusive: 13 µM [inhibitor, partial curve] | 
Cc1ccc(-n2ncc(C(=O)NCCN3CCOCC3)c2C2CCN(C(=O)OC(C)(C)C)CC2)c(C)c1 |  | inconclusive: -30.4% [inhibitor]
Cc1ccc(S(=O)(=O)/N=S(/c2ccccc2)C(C)C)cc1 (stereo not drawn) | inconclusive: 11.6 µM [inhibitor, partial curve] | 
CN(C(=O)COC(=O)/C=C/c1ccc2ccccc2n1)c1c(N)n(Cc2ccccc2)c(=O)[nH]c1=O | inconclusive: 18.4 µM [inhibitor, single point] | 
C=CCc1c(NCCO)nc(C)[nH]c1=O | inactive | 
COc1ccc(C2N(c3ccc(Cl)cc3)N=C(C(C)=O)N(C)N2C(C)=O)cc1 (stereo not drawn) |  | inconclusive: -33.6% [inhibitor]
O=C(Nc1nc2ccc(F)cc2s1)c1cccs1 | inactive | 
Cc1ccccc1NC(=O)/C(C#N)=C\c1cn(CC(=O)O)c2ccccc12 | inactive | 
CC(=O)c1ccc(-c2nc3ccccc3n2C)o1 | inconclusive: 10 µM [inhibitor, single point] | 
CCOC(=O)c1c(-c2cccs2)csc1N | inactive | 
CCN(Cc1ccccc1)C(=O)c1cc2c(OC)c(OC)c(OC)cc2[nH]1 |  | inconclusive: -32.2% [inhibitor]
COc1ccccc1-c1ccc2ncnc(NCc3ccccc3)c2c1 | inconclusive: 20.6 µM [inhibitor, single point] | 
CC(C)C(=O)NNC(=O)c1c(O)c2ccccc2[nH]c1=O | inconclusive: 25.9 µM [inhibitor, single point] | 
C/C(=C\C(=O)c1ccncc1)Nc1ccccc1O | inconclusive: 23.1 µM [inhibitor, single point] | 
COc1ccc(N2CC(C(=O)Nc3nc4ccc(S(C)(=O)=O)cc4s3)CC2=O)cc1 (stereo not drawn) |  | inconclusive: -30% [inhibitor]

SMILES | Potency | activity change, negative = growth inhibition
NC(Cc1ccc(C(F)(F)F)cc1)c1csc(Nc2ncccn2)n1 (stereo not drawn) | active: 9.2 µM | 
COc1ccc(OC)c(C(=O)CN2C(=O)NC(C)(c3ccccc3)C2=O)c1 (stereo not drawn) | inconclusive: 23.1 µM [inhibitor, single point] | 
Cc1c(Cl)cccc1NC(=O)Cn1cc(C(=O)C2CCCCC2)c2ccccc21 | inconclusive: 23.1 µM [inhibitor, single point] | 
CC(=O)c1cc(NC(=O)c2ccc(C)cc2)c(=O)oc1C | inconclusive: 23.1 µM [inhibitor, partial curve, poor fit] | 
CC(=O)n1c2ccccc2c2nc(NC(C)C)sc21 | inconclusive: 18.4 µM [inhibitor, single point] | 
Cc1cc(NC(=O)CCC(=O)N(CC(=O)NC2CCCC2)c2ccc(C)c(F)c2)no1 | inactive | 
COc1ccc(NS(=O)(=O)c2cc(NC(=O)c3ccc(=O)[nH]c3)ccc2N2CCOCC2)cc1 | inactive | 
CCc1ccc(Nc2nnc(SCC(=O)NC(=O)c3cccn3C)s2)cc1 | inactive | 
CCCCN(C(=O)c1ccc(OC)c([N+](=O)[O-])c1)c1c(N)n(CCC)c(=O)[nH]c1=O |  | inconclusive: -28.4% [inhibitor]
CN(Cc1ccc2c(c1)OCCO2)C(=O)CN1C(=O)NC2(CCCCC2)C1=O | inactive | 
CCN(C(=O)CN1C(=O)S/C(=C\c2ccc(Cl)cc2)C1=O)C1CCS(=O)(=O)C1 (stereo not drawn) | inactive | 
C[C@H](CO)N1C[C@H](C)[C@@H](CN(C)Cc2ccncc2)Oc2c(NC(=O)CCCCCC(=O)Nc3ccccc3N)cccc2C1=O | active: 23.1 µM | 
Cc1ccc(S(=O)(=O)Nc2cc3c(C(=O)O)c(C)oc3c3ccccc23)c(C)c1 | inactive | 
Cc1ccc(S(=O)(=O)N2CCN(Cc3ccccn3)CC2)cc1 | inconclusive: 16.4 µM [inhibitor, single point] | 
O=C(CCCN=C1NS(=O)(=O)c2ccccc21)Nc1ccc(Cl)cc1 | inactive | 
O=S(=O)(NC1CC2CCC1C2)c1ccc(Br)s1 (stereo not drawn) | active: 23.1 µM | 
COc1ccc(CCNc2nc(-c3ccc(F)cc3)cc(C(F)(F)F)n2)cc1OC | inconclusive: 9.2 µM [inhibitor, partial curve] | 
COc1ccc(NCc2nnc(SCC(=O)Nc3ccc(OC)cc3OC)o2)cc1 | inactive | 
CN(Cc1ccco1)c1ncncc1-c1cccc(C#N)c1 | inactive | 
Cc1ccc(S(=O)(=O)N2CCCCC2)cc1NC(=O)COC(=O)C1CC2C=CC1C2 (stereo not drawn) | inconclusive: 29.1 µM [inhibitor, single point] | 
O=C(Nc1cccc(-c2nc3ccccc3s2)c1)c1cccs1 | inconclusive: 29.1 µM [inhibitor, single point] | 
COc1ccc(C(CNC(=O)c2cccc([N+](=O)[O-])c2)N2CCOCC2)cc1 (stereo not drawn) | inconclusive: 23.1 µM [inhibitor, single point] | 
OC(CNC1CCCc2ccccc21)COc1c(Cl)cccc1Cl (stereo not drawn) | inconclusive: 29.1 µM [inhibitor, single point] | 
COc1ccc(/C=C/C(=O)c2ccc(OC)cc2OC)cc1 | inconclusive: 21.1 µM [inhibitor, single point] and inconclusive: 23.1 µM [inhibitor, single point] | 
COc1ccccc1S(=O)(=O)Cc1ccc(C(=O)N2CCN(c3cccc(Cl)c3)CC2)o1 | active: 5.8 µM | 

SMILES | Potency | activity change, negative = growth inhibition
O=C1CN(C(=O)c2cc3ccccc3oc2=O)C(c2ccc(F)cc2)c2cc(Br)ccc2N1 (stereo not drawn) | inconclusive: 29.1 µM [inhibitor, single point] | 
Cc1cccc(NC(=O)C2CCN(S(=O)(=O)c3cccc4cccnc34)CC2)n1 |  | inconclusive: -32.6% [inhibitor]
Cc1ccc(N2C(=O)[C@@H]3C(C(=O)CN4C(=O)c5ccccc5C4=O)=NN[C@@H]3C2=O)c(C)c1 | inactive | 
OCC1(Cc2ccccc2)CCN(Cc2cnc(-c3ccc(Cl)cc3)nc2)CC1 | active: 23.1 µM | 
CCCCN(CC)C(=O)c1ccccc1Oc1ccccc1 | inconclusive: 29.1 µM [inhibitor, single point] | 
COC(=O)c1cnn(-c2ccc(C(=O)Nc3ccc(OC(F)(F)F)cc3)cc2)c1N | inconclusive: 16.4 µM [inhibitor, single point] | 
Cc1cccc(OCC(=O)Nc2ccc3c(c2)nc2n3CCOC2)c1 | inactive | 
Cc1ccc(OCCCOc2cccc3cccnc23)cc1C | inconclusive: 29.1 µM [inhibitor, single point] | 
CCCc1cc(=O)[nH]c(Nc2ccc(Cl)cc2)n1 | active: 16.4 µM | 
O=C(Nc1cccnc1)c1cc(Br)c(Br)s1 | inconclusive: 29.1 µM [inhibitor, single point] | 
CCN(CC)CCNC(=O)c1c(C)oc2cc(Br)c(OC)cc12 | inconclusive: 25.9 µM [inhibitor, single point] | 
CN(CC1COCCO1)C(=O)c1cnn(-c2nccc(-c3ccccc3C(F)(F)F)n2)c1C1CC1 (stereo not drawn) | inconclusive: 23.1 µM [inhibitor, single point] | 
CN(C(=O)OC(C)(C)C)[C@H](Cc1ccccc1)C(=O)N[C@H]1CCCCNC1=O | inactive | 
CCCN1CCC(=O)N([C@H](CSc2ccccc2)c2ccccc2)CC1 | active: 10 µM and active: 18.4 µM | 
O=C(CCc1cccnc1)NCC1Cc2cccc(-c3ncccn3)c2O1 (stereo not drawn) | inactive | 
O=C1C(Cc2ccccc2)S/C(=N/N=C/c2ccco2)N1c1ccccc1 (stereo not drawn) | inconclusive: 18.4 µM [inhibitor, single point] | 
CCCCCCCCN1[C@@H](CC(=O)OC)c2ccc(/C=C/C(=O)OC)cc2S1(=O)=O | inactive | 
O=C(NC12CC3CC(CC(C3)C1)C2)C1CC(=O)N(c2ccccc2)C1 (stereo not drawn) | inactive | 
CN(Cc1ccccn1)C(=O)c1ccc2nc(Cc3cccc(Cl)c3)oc2c1 | inconclusive: 13 µM [inhibitor, partial curve] | 
CC(C)(C)c1cc(NC(=O)c2c(F)cccc2Cl)n(-c2ccccc2)n1 | inconclusive: 29.1 µM [inhibitor, single point] | 
NC(=S)N/N=C/c1ccccc1[N+](=O)[O-] | inactive | 
Cc1ccc(CNC(=O)Cn2c(=O)ccc3cc(S(=O)(=O)N4CCCC4)ccc32)cc1 | inconclusive: 32.6 µM [inhibitor, single point] | 
CC(NC(=O)c1c2c(nc3ccccc13)C(=O)N(C1CCCCC1)C2)c1ccccc1 (stereo not drawn) | active: 18.4 µM | 
